Target: T1, myostatin (Homo sapiens, UniProt O14793)
T1 construct: To produce mature myostatin, the pooled promyostatin was enzymatically cleaved between the propeptide and mature myostatin C terminal; made in house; host or cells: E. coli K-12 strain 2596 (ATCC # 202174)
T1 sequence (O14793 267-375): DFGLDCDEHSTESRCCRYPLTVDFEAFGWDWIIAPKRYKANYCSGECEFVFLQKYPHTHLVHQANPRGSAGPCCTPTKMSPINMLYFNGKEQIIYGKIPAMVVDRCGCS
Assay: C2C12 pMARE-luc cell based myostatin activity assay
Details: affinity matured peptibodies; a range of values is given
From the text: A myostatin-responsive reporter cell line was generated by transfection of C2C12 myoblast cells (ATCC No: CRL-1772) with a pMARE-luc construct. The pMARE-luc construct was made by cloning twelve repeats of the CAGA sequence, representing the myostatin/activin response elements (Dennler et al. EMBO 17: 3091-3100 (1998)) into a pLuc-MCS reporter vector (Stratagene cat #219087) upstream of the TATA box. The myoblast C2C12 cells naturally express myostatin/activin receptors on its cell surface. When myostatin binds the cell receptors, the Smad pathway is activated, and phosphorylated Smad binds to the response element (Macias-Silva et al. Cell 87:1215 (1996)), resulting in the expression of the lucerase gene. Luciferase activity is then measured using a commercial luciferase reporter assay kit (cat #E4550, Promega, Madison, Wis.) according to manufacturer's protocol. A stable line of C2C12 cells that had been transfected with pMARE-luc (C2C12/pMARE clone #44) was used to measure myostatin activity according to the following procedure.
Equal numbers of the reporter cells (C2C12/pMARE clone #44) were plated into 96 well cultures. A first round screening using two dilutions of peptibodies was performed with the myostatin concentration fixed at 4 nM. […] Myostatin activity was measured by determining the luciferase activity in the treated cultures. […]

Row | IC50 | Substance
1 | 86.8 nM | mTN8Con6-3 ([left out - human IgG1 Fc]GGGGGAQWTGWYQCYGGHLWCYDLRRKLE)
2 | 2380 nM | mTN8Con6-5 ([left out - human IgG1 Fc]GGGGGAQESRWYPCYEGHLWCFDLTETLE)

Reference: patent US20110008375A1, “Uses of Myostatin Antagonists” (AMGEN INC., priority 2005, published 2011)
